Source: article PMC11995724, “Antibiotic target discovery by integrated phenotypic and activity-based profiling of electrophilic fragments” (Cell chemical biology, 2025)
About 75 (2%) of roughly 3,200 compounds showed an effect of 50% or more. The list shows a part of the results.

These compounds were tested on T1, S. aureus MSSA476. Settings: relative growth, OD600, TSB; 25 µM; inhibitor.
T1 construct: MSSA476
Design: species or system S. aureus MSSA476 (TSB) or V. cholerae SAD30 (LB); 384-well bacterial growth screen at 25 uM, OD600 relative to DMSO control

Row | Compound | % of control remaining
1 | CCOc1ccc(C(=O)CCl)cc1 [10-F12, 2-chloro-1-(4-ethoxyphenyl)ethan-1-one] | 0.3125%
2 | C=CC(=O)N1CCOCC2(CC2)C1 [2-M15, 1-{5-oxa-8-azaspiro[2.6]nonan-8-yl}prop-2-en-1-one] | 110.009%
3 | CCN(C(=O)CCl)c1cccc2ccccc12 [5-B08, 2-chloro-N-ethyl-N-(naphthalen-1-yl)acetamide] | 124.226%
4 | CC(Cl)C(=O)Nc1cc2c(cc1Cl)C(=O)c1ccccc1C2=O (stereo not shown) [4-I12, 2-chloro-N-(3-chloro-9,10-dioxo-9,10-dihydroanthracen-2-yl)propanamide] | 121.963%
5 | C=CC(=O)N(C)CC(=O)N1CCc2ccc(S(C)(=O)=O)cc2CC1 [2-N08, N-[2-(7-methanesulfonyl-2,3,4,5-tetrahydro-1H-3-benzazepin-3-yl)-2-oxoethyl]-N-methylprop-2-enamide] | 106.527%
6 | CCN(CC)S(=O)(=O)c1cc(NC(=O)C(C)Cl)ccc1C (stereo not shown) [4-P09, 2-chloro-N-[3-(diethylsulfamoyl)-4-methylphenyl]propanamide] | 98.7137%
7 | COc1ccc(C=C(C#N)C(=O)Nc2ccccc2OC)cc1 [8-G09, 2-cyano-N-(2-methoxyphenyl)-3-(4-methoxyphenyl)prop-2-enamide] | 132.448%
8 | CC(Cl)C(=O)N1CCN(CC(F)(F)C(F)F)CC1 (stereo not shown) [7-J07, 2-chloro-1-[4-(2,2,3,3-tetrafluoropropyl)piperazin-1-yl]propan-1-one] | 107.064%
9 | N#CC(=Cc1c[nH]c2ccccc12)C(=O)Nc1ccccn1 [9-B10, 2-cyano-3-(1H-indol-3-yl)-N-(pyridin-2-yl)prop-2-enamide] | 79.4007%
10 | Cc1nc2n(n1)CCCC2NC(=O)CCl (stereo not shown) [7-F12, 2-chloro-N-{2-methyl-5H,6H,7H,8H-[1,2,4]triazolo[1,5-a]pyridin-8-yl}acetamide] | 99.843%
11 | Cc1cc(CN(C(=O)CCl)C2CCCC2)c2ccccc2n1 [7-B20, 2-chloro-N-cyclopentyl-N-[(2-methylquinolin-4-yl)methyl]acetamide] | 93.2496%
12 | N#CC(=Cc1ccc(C#N)cc1)C(=O)Nc1cccc2ccccc12 [8-O16, 2-cyano-3-(4-cyanophenyl)-N-(naphthalen-1-yl)prop-2-enamide] | 107.552%
13 | CC(C)c1ccc(CN(C(=O)CCl)C2CC2)cc1 [6-K18, 2-chloro-N-cyclopropyl-N-{[4-(propan-2-yl)phenyl]methyl}acetamide] | 91.1707%
14 | O=C(CCl)NCCOc1cccc(Cl)c1 [6-G05, 2-chloro-N-[2-(3-chlorophenoxy)ethyl]acetamide] | 76.4878%
15 | N#CC(=Cc1csc(-c2ccsc2)n1)C(=O)NC1CC1 [9-N18, 2-cyano-N-cyclopropyl-3-[2-(thiophen-3-yl)-1,3-thiazol-4-yl]prop-2-enamide] | 131.236%
16 | C=CC(=O)NCc1cccc(-c2nnc[nH]2)c1 [1-I18, N-{[3-(4H-1,2,4-triazol-3-yl)phenyl]methyl}prop-2-enamide] | 105.846%
17 | C=CC(=O)N(Cc1ccc(F)cn1)c1cnn(C2CCCC2)c1C [1-D11, N-(1-cyclopentyl-5-methyl-1H-pyrazol-4-yl)-N-[(5-fluoropyridin-2-yl)methyl]prop-2-enamide] | 98.1099%
18 | N#CC(=Cc1ccc(Cl)cc1Cl)C(=O)Nc1ccncc1 [8-M22, 2-cyano-3-(2,4-dichlorophenyl)-N-(pyridin-4-yl)prop-2-enamide] | 95.6017%
19 | C=CC(=O)N1CCC(C(=O)NCc2cc(=O)n3ccccc3n2)CC1 [3-L12, N-({4-oxo-4H-pyrido[1,2-a]pyrimidin-2-yl}methyl)-1-(prop-2-enoyl)piperidine-4-carboxamide] | 102.743%
20 | CC(Cl)C(=O)N(C)Cc1ncnn1CC(F)F (stereo not shown) [7-C10, 2-chloro-N-{[1-(2,2-difluoroethyl)-1H-1,2,4-triazol-5-yl]methyl}-N-methylpropanamide] | 104.239%
21 | CC(C)NC(=O)C(C#N)=Cc1cccs1 [8-H15, 2-cyano-N-(propan-2-yl)-3-(thiophen-2-yl)prop-2-enamide] | 112.531%
22 | O=C(CCl)N[C@H]1CCN(S(=O)(=O)c2ccccc2)C1 [7-P16, N-[(3S)-1-(benzenesulfonyl)pyrrolidin-3-yl]-2-chloroacetamide] | 101.413%
23 | N#CC(=Cc1cccnc1)C(=O)Nc1ccc(F)cc1 [8-B21, 2-cyano-N-(4-fluorophenyl)-3-(pyridin-3-yl)prop-2-enamide] | 109.876%
24 | N#CC(=Cc1ccccc1Cl)C(=O)Nc1ccc2c(c1)OCCO2 [8-F03, 3-(2-chlorophenyl)-2-cyano-N-(2,3-dihydro-1,4-benzodioxin-6-yl)prop-2-enamide] | 109.876%
25 | Cc1ccccc1NC(=O)C(C#N)=Cc1ccsc1 [8-K15, 2-cyano-N-(2-methylphenyl)-3-(thiophen-3-yl)prop-2-enamide] | 116.846%
26 | Cc1ccccc1CN1CCC(NC(=O)CCl)CC1.Cl [6-L08, 2-chloro-N-{1-[(2-methylphenyl)methyl]piperidin-4-yl}acetamide hydrochloride] | 130.78%
27 | O=C(CCl)N1CCn2c(cc3ccccc32)C1 [5-A20, 2-chloro-1-{1H,2H,3H,4H-pyrazino[1,2-a]indol-2-yl}ethan-1-one] | 152.641%
28 | CC(NC(=O)C(C#N)=Cc1cc(O)ccc1[N+](=O)[O-])c1ccccc1 (stereo not shown) [9-D15, 2-cyano-3-(5-hydroxy-2-nitrophenyl)-N-(1-phenylethyl)prop-2-enamide] | 90.4869%
